Source: PubChem BioAssay AID2675 (National Center for Advancing Translational Sciences (NCATS), 2010)
Hit rate of the full screen: of about 280,000 compounds, about 100 (0.036%) were called active. Inconclusive means that the source gave no clear call. Such entries were picked first, then a sample of the others. Calls come from the whole dose curve; as a rule, active = well fitted inhibition curve with a large enough effect in the signal ratio, with a control signal flat (not every such curve was filed as active); inconclusive = small, poorly fitted or top-dose-only effect, or effect the other way, or a change in a side signal; inactive = no such curve, though single readings can be large or run the other way; the % refers to the signal ratio. A potency beside an inconclusive call is a rough fit, not a confirmed value. A note “side channel” means that the fit belongs to a control or component signal, not to the main read-out.

target: Muscleblind-like protein 1 (Homo sapiens) (UniProt Q9NR56); assay: qHTS Assay for Inhibitors of MBNL1-poly(CUG) RNA binding; conditions: TR-FRET MBNL1-His/biotin-(CUG)12 binding, 665/545 ratio; series mostly up to 57.5 µM
UniProt Q9NR56, sequence (Q9NR56 whole entry, looked up): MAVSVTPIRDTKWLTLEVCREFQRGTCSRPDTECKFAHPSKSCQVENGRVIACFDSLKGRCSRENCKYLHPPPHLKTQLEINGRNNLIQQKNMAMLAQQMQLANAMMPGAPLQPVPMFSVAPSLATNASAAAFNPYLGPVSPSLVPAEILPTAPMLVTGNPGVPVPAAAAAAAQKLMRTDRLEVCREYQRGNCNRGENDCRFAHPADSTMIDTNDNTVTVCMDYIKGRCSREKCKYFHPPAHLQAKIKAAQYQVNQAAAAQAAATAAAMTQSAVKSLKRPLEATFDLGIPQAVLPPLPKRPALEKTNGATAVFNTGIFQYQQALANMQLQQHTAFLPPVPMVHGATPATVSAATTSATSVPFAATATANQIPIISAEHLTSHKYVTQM
How it was run: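 His-tagged MBNL1 binding to biotinylated (CUG)12 RNA was measured by TR-FRET using terbium anti-His antibody (0.055 ng/ul final) and streptavidin-XL665 (5 nM final). Compounds were titrated 92 nM to 58 uM; 60 min at room temperature.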
Potency is the fitted concentration of half-maximal effect; tags give direction and shape of the fitted curve or compound fluorescence and quenching.

| Structure (SMILES) | Potency |
| --- | --- |
| COC(=O)c1c(C)oc2ccc(N(C(=O)Oc3ccccc3)S(=O)(=O)c3ccc(Cl)c([N+](=O)[O-])c3)cc12 | inconclusive: 8.91 µM [fluorescent, side channel, single point] |
| CCOC(=O)N=Nc1c(O)n(CC(=O)OC)c2ccccc12 | inconclusive: 14.1 µM [quencher, side channel, partial curve] |
| O=C(c1ccccc1F)N1CCN(c2ccc([N+](=O)[O-])c(NCC3CCCO3)c2)CC1 (centres undefined) | inconclusive: 12.6 µM [quencher, side channel, partial curve] |
| COc1cccc2cc(-c3nnc(-c4ccccc4)o3)c(=O)oc12 | inconclusive: 1.78 µM [quencher, side channel, full curve, poor fit] |
| O=C(COC(=O)c1cc([N+](=O)[O-])ccc1N1CCOCC1)Nc1c(Cl)cccc1C(F)(F)F | inconclusive: 2.24 µM [quencher, side channel, full curve] |
| Cc1ccc(-c2c(C(=O)N/N=C/c3cccnc3)nnn2-c2nonc2N)cc1 | inconclusive: 14.1 µM [quencher, side channel, partial curve] |
| COc1ccccc1CN1C[C@@H]2C[C@@H](c3ccc4nsnc4c3)N3CCC[C@@]23C1=O | inconclusive: 3.98 µM [quencher, side channel, full curve] |
| COc1ccccc1Oc1nc([N+](=O)[O-])nn1CC(N)=O | inconclusive: 5.62 µM [quencher, side channel, full curve] |
| CCOc1ccc2[nH]c(=O)c(CN(CCO)C(=O)c3ccc(Br)cc3)cc2c1 | inactive |
| CCc1ccc(OCC(=O)NC(=S)Nc2ccc(C(C)=O)cc2)c(Br)c1 | inconclusive: 12.6 µM [inhibitor, single point] |
| S=c1[nH]nc(COc2ccc3ccccc3c2)o1 | inactive |
| Cc1ccc(-c2nn3c(=O)c(C)nnc3s2)cc1 | inconclusive: 3.16 µM [quencher, side channel, single point] |
| C/C(=N/NC(=O)CNC(=O)c1cccnc1)c1cccc([N+](=O)[O-])c1 | inconclusive: 15.8 µM [quencher, side channel, partial curve] |
| COc1ccc(-c2nn(-c3ccccc3)cc2/C=C/C(=O)N2CCOCC2)cc1OC | inconclusive: 25.1 µM [quencher, side channel, partial curve] |
| COc1ccccc1Nc1nc2ccc(C)cc2cc1C#N | inactive |
| Cc1ccc(NC(=O)CCCCCN2C(=O)c3ccccc3C2=O)nc1 | inconclusive: 28.2 µM [quencher, side channel, single point] |
| CC(=O)NC(CC(=O)c1ccc([N+](=O)[O-])cc1)C(Cl)(Cl)Cl (centres undefined) | inconclusive: 8.91 µM [quencher, partial curve] |
| O=[n+]1c2c(n([O-])c3c1CCCC3)CCCC2 | inconclusive: 25.1 µM [quencher, side channel, partial curve, poor fit] |
| Cn1c(NNC(=O)c2c(F)cccc2F)cc(=O)n(C)c1=O | inconclusive: 22.4 µM [quencher, side channel, partial curve] |
| Cc1cc(Cl)ccc1N(CC(=O)N=Nc1c(O)[nH]c2ccccc12)S(C)(=O)=O | inconclusive: 17.8 µM [quencher, side channel, partial curve] |

| Structure (SMILES) | Potency |
| --- | --- |
| CCOC(=O)NN=C1c2ccccc2-c2ccccc21 | inconclusive: 15.8 µM [quencher, side channel, partial curve] |
| Cc1ccc(C(=O)N/N=C/c2ccc(-c3ccc(Br)cc3[N+](=O)[O-])o2)o1 | inconclusive: 12.6 µM [quencher, partial curve] |
| Cc1nc(N2CCOCC2)sc1C=O | inconclusive: 28.2 µM [quencher, side channel, single point] |
| Cc1ccc(S(=O)(=O)N/N=C\c2cc3c(cc2[N+](=O)[O-])OCO3)cc1 | inconclusive: 14.1 µM [quencher, side channel, partial curve, poor fit] |
| O=C(NC(Nc1nc2ccc([N+](=O)[O-])cc2s1)(C(F)(F)F)C(F)(F)F)c1cccnc1 | inconclusive: 15.8 µM [quencher, side channel, partial curve] |
| CC1=CC(=NOC(=O)/C=C/c2ccccc2)C=C(C)C1=O | inconclusive: 5.01 µM [quencher, side channel, full curve] |
| CCOn1c(=O)c(-c2cccc(Br)c2)[n+]([O-])c2ccccc21 | inconclusive: 3.55 µM [quencher, side channel, full curve] |
| C=CCNC(=O)c1ccc(NC(=O)C2=CSCCO2)cc1 | inactive |
| Cc1ccc(-c2nc3ccccc3n3c(C)nnc23)cc1 | inconclusive: 2.51 µM [quencher, side channel, partial curve, poor fit] |
| COc1ccc(/C=N/NC(=O)c2ccc(COc3cccc4cccnc34)cc2)cc1OC | inconclusive: 28.2 µM [quencher, side channel, partial curve] |
| COc1ccccc1CNC(=O)CN1C(=O)c2ccc([N+](=O)[O-])cc2C1=O | inconclusive: 11.2 µM [quencher, side channel, partial curve] |
| Cc1cccc(C)c1N=Cc1c(O)n(-c2nccs2)c(=O)c2ccccc12 | inconclusive: 20 µM [quencher, side channel, partial curve] |
| CC(/C=C1\NC(=S)NC1=O)=C\c1ccccc1 | inconclusive: 22.4 µM [quencher, side channel, partial curve] |
| COc1ccc(CNC(=S)NCc2ccc(F)cc2)cc1OC | inactive |
| CCc1ccc2c(c1)C1(NN=C(c3ccccc3)S1)C(=O)N2 (centres undefined) | inconclusive: 17.8 µM [quencher, side channel, single point] |
| O=[N+]([O-])c1ccc(C(=S)N2CCN(Cc3ccccc3)CC2)cc1 | inconclusive: 0.112 µM [quencher, side channel, full curve, poor fit] |
| O=c1c2ccccc2oc2ccc(NCCCN3CCOCC3)cc12 | inconclusive: 17.8 µM [quencher, side channel, partial curve] |
| NC(=O)CC(NC(=O)c1ccccc1)c1ccc(N2CCN(c3ccccn3)CC2)c([N+](=O)[O-])c1 (centres undefined) | inconclusive: 20 µM [quencher, side channel, partial curve] |
| COc1ccc(CNCCc2ccc(Cl)cc2)cc1OCc1ccccc1 | inactive |
| CC1CCCN(c2nc3ccccc3nc2C(C#N)S(=O)(=O)c2ccccc2)C1 (centres undefined) | inconclusive: 22.4 µM [quencher, side channel, single point] |

| Structure (SMILES) | Potency |
| --- | --- |
| Cc1sc2nc(SCc3nc(-c4ccccc4)no3)n(-c3ccccc3)c(=O)c2c1C | inactive |
| COc1ccc(C(=O)[C@H]2[C@H]3C(=O)N(c4ccc(C)cc4)C(=O)[C@H]3C3C=CC=NN32)cc1 (some centres undefined) | inconclusive: 17.8 µM [quencher, side channel, partial curve, poor fit] |
| Cn1c2ccccc2c2n[nH]c(=O)nc21 | inconclusive: 10 µM [quencher, side channel, partial curve] |
| O=C(Cn1c2ccccc2c2nc3n(c(=O)c21)CCS3)N1CCCC1 | inconclusive: 3.55 µM [quencher, side channel, single point] |
| O=C(CCC(=O)Nc1ccc(Cl)cc1Cl)N/N=C/c1ccc([N+](=O)[O-])o1 | inconclusive: 7.08 µM [quencher, side channel, partial curve] |
| CC1CCCCN1C(=O)c1cc(S(=O)(=O)N2CCCCC2)c[nH]1 (centres undefined) | inactive |
| CCOc1ccc(NC(=S)NC23CN4CN(CN(C4)C2)C3)cc1 | inactive |
| CCC(CO)[n+]1c(C)cc(/C=C2\Sc3ccccc3N2Cc2ccccc2)cc1C (centres undefined) | inconclusive: 7.94 µM [activator, single point] |
| Cn1cc(CCC(=O)NCc2cccc(Cl)c2)c2ccccc21 | inactive |
| COc1ccccc1-c1nnc(Nc2nc3c(OC)cccc3s2)o1 | inconclusive: 7.94 µM [quencher, side channel, partial curve] |
| CCn1c(=N)c(C(=O)NCc2cccnc2)cc2c(=O)n3cccc(C)c3nc21 | inconclusive: 3.55 µM [quencher, side channel, full curve] |
| O=C(Nc1nccs1)c1ccc2ccccc2c1 | inactive |
| C=CCNC(=O)CSc1cc([N+](=O)[O-])cc(S(=O)(=O)Cc2ccccc2)c1 | inconclusive: 7.08 µM [quencher, side channel, partial curve] |
| CC1=C(C#N)C(=O)N(C2CCS(=O)(=O)C2)C(=O)/C1=C\c1ccc(C)o1 (centres undefined) | inconclusive: 25.1 µM [quencher, side channel, single point] |
| Cc1ccc(/C=N/NC(=O)c2ccco2)s1 | inconclusive: 15.8 µM [quencher, side channel, partial curve] |
| COC(=O)c1ccsc1NC(=O)CSc1nnnn1-c1ccccc1SC | inactive |
| Cc1ccsc1CN(C(=O)c1ccc([N+](=O)[O-])cc1)C1CCS(=O)(=O)C1 (centres undefined) | inconclusive: 14.1 µM [quencher, partial curve] |
| Cc1nc2ccc(NC(=O)c3ccc([N+](=O)[O-])cc3)cc2s1 | inconclusive: 10 µM [quencher, side channel, partial curve] |
| O=C(Cc1cccc2ccccc12)Nc1nnc(-c2cccc([N+](=O)[O-])c2)s1 | inactive |
